Measured values published in the supplement of paper PMC8728848.
The other results are listed elsewhere or left out.

Tests used:
Assay in all cases: glycan array binding signal (z-score within array); higher = stronger binding
Conditions in all cases: glycan notation: IUPAC condensed, linker removed
[1] = target: Fuc(a1-3)[Gal(b1-4)]GlcNAc(b1-3)Gal(b1-4)[Fuc(a1-3)]GlcNAc
Method in brief: (§1)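 Glycan array data were curated from 3228 arrays in the Consortium for Functional Glycomics database and kept only where the protein sequence was available. Glycan names were converted to IUPAC-condensed notation, and columns mapping to the same glycan were averaged. The binding signal is a within-array Z-score, averaged across arrays of the same protein sequence at different concentrations or buffers and across linkers. Negative Z-scores can be read as non-binding.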

[2] = target: Fuc(a1-3)[Gal(b1-4)]GlcNAc(b1-3)Gal(b1-4)[Fuc(a1-3)]GlcNAc(b1-3)Gal(b1-4)[Fuc(a1-3)]GlcNAc
Method in brief: as §1

[3] = target: Fuc(a1-3)[Gal(b1-4)]GlcNAc(b1-3)GalNAc
Method in brief: as §1

[4] = target: Fuc(a1-3)[Gal(b1-4)]GlcNAc(b1-6)GalNAc
Method in brief: as §1

[5] = target: Fuc(a1-3)[Gal(b1-4)]GlcNAc(b1-6)[Gal(b1-3)GlcNAc(b1-3)]Gal(b1-4)Glc
Method in brief: as §1

[6] = target: Fuc(a1-3)[Gal(b1-4)]GlcNAc6S
Method in brief: as §1

[7] = target: Fuc(a1-3)[Gal3S(b1-4)]Glc
Method in brief: as §1

[8] = target: Fuc(a1-3)[Gal3S(b1-4)]GlcNAc
Method in brief: as §1

[9] = target: Fuc(a1-3)[Gal3S(b1-4)]GlcNAc6S
Method in brief: as §1

[10] = target: Fuc(a1-3)[GalNAc(b1-4)]GlcNAc
Method in brief: as §1

[11] = target: Fuc(a1-3)[GalNAc(b1-4)]GlcNAc6S
Method in brief: as §1

Fuc(a1-4)GlcNAc = target: Fuc(a1-4)GlcNAc
Method in brief: as §1

Fuc(b1-3)GlcNAc = target: Fuc(b1-3)GlcNAc
Method in brief: as §1

Gal(a1-2)Gal = target: Gal(a1-2)Gal
Method in brief: as §1

Gal(a1-3)Gal = target: Gal(a1-3)Gal
Method in brief: as §1

Gal(a1-3)Gal(b1-3)GlcNAc = target: Gal(a1-3)Gal(b1-3)GlcNAc
Method in brief: as §1

[12] = target: Gal(a1-3)Gal(b1-3)GlcNAc(b1-2)Man
Method in brief: as §1

[13] = target: Gal(a1-3)Gal(b1-3)GlcNAc(b1-2)Man(a1-3)[Gal(a1-3)Gal(b1-3)GlcNAc(b1-2)Man(a1-6)]Man(b1-4)GlcNAc(b1-4)GlcNAc
Method in brief: as §1

[14] = target: Gal(a1-3)Gal(b1-3)GlcNAc(b1-3)GalNAc
Method in brief: as §1

[15] = target: Gal(a1-3)Gal(b1-3)GlcNAc(b1-6)GalNAc
Method in brief: as §1

[16] = target: Gal(a1-3)Gal(b1-3)[Fuc(a1-4)]GlcNAc(b1-2)Man(a1-3)[Gal(a1-3)Gal(b1-3)[Fuc(a1-4)]GlcNAc(b1-2)Man(a1-6)]Man(b1-4)GlcNAc(b1-4)GlcNAc
Method in brief: as §1

Gal(a1-3)Gal(b1-4)Glc = target: Gal(a1-3)Gal(b1-4)Glc
Method in brief: as §1

Gal(a1-3)Gal(b1-4)GlcNAc = target: Gal(a1-3)Gal(b1-4)GlcNAc
Method in brief: as §1

[17] = target: Gal(a1-3)Gal(b1-4)GlcNAc(b1-2)Man
Method in brief: as §1

[18] = target: Gal(a1-3)Gal(b1-4)GlcNAc(b1-2)Man(a1-3)[Gal(a1-3)Gal(b1-4)GlcNAc(b1-2)Man(a1-6)]Man(b1-4)GlcNAc(b1-4)GlcNAc
Method in brief: as §1

[19] = target: Gal(a1-3)Gal(b1-4)GlcNAc(b1-3)GalNAc
Method in brief: as §1

[20] = target: Gal(a1-3)Gal(b1-4)GlcNAc(b1-6)GalNAc
Method in brief: as §1

[21] = target: Gal(a1-3)Gal(b1-4)[Fuc(a1-3)]GlcNAc
Method in brief: as §1

[22] = target: Gal(a1-3)Gal(b1-4)[Fuc(a1-3)]GlcNAc(b1-2)Man(a1-3)[Gal(a1-3)Gal(b1-4)[Fuc(a1-3)]GlcNAc(b1-2)Man(a1-6)]Man(b1-4)GlcNAc(b1-4)GlcNAc
Method in brief: as §1

Gal(a1-3)GalNAc = target: Gal(a1-3)GalNAc
Method in brief: as §1

[23] = target: Gal(a1-3)[Gal(a1-4)]Gal(b1-4)GlcNAc
Method in brief: as §1

[24] = target: Gal(a1-4)Gal(b1-3)GlcNAc(b1-2)Man(a1-3)[Gal(a1-4)Gal(b1-3)GlcNAc(b1-2)Man(a1-6)]Man(b1-4)GlcNAc(b1-4)GlcNAc
Method in brief: as §1

Gal(a1-4)Gal(b1-4)Glc = target: Gal(a1-4)Gal(b1-4)Glc
Method in brief: as §1

Gal(a1-4)Gal(b1-4)GlcNAc = target: Gal(a1-4)Gal(b1-4)GlcNAc
Method in brief: as §1

[25] = target: Gal(a1-4)Gal(b1-4)GlcNAc(b1-2)Man(a1-3)[Gal(a1-4)Gal(b1-4)GlcNAc(b1-2)Man(a1-6)]Man(b1-4)GlcNAc(b1-4)GlcNAc
Method in brief: as §1

[26] = target: Gal(a1-4)Gal(b1-4)GlcNAc(b1-3)Gal(b1-4)Glc
Method in brief: as §1

Gal(a1-4)GlcNAc = target: Gal(a1-4)GlcNAc
Method in brief: as §1

Gal(a1-6)Glc = target: Gal(a1-6)Glc
Method in brief: as §1

B1: B160 (Bifidobacterium sp) (protein)
chain: MVSHNKRIVAALAAVAAMGIGLAGCGGSDTAGDTKSGSDGGVVNITYMHRLPDSEGMTLVNDIVAKWNKEHPNIQVKATKFDGNAADMIKKLETDVKAGNAPDLAQVGYAEVPEVFTKGLLQDVTDEAAKYKDDFASGPFALMQVDGKTYGLPQDTGPLTYFYNAAEFEKLGITVPKTADELIETAKKTAAQGKYIMTFTPDEAMMMMSGQAGASGPWYKVDGNSWVVNTQTKGSKAVADVYQQLIDNKAALTNPRWDASFDNSIQSGQLIGTVAAAWEAPLFIDSAGGTGAGEWKVTQLGDWFGNGTKTGANGGSGVAVLKGSKHPAEAMEFLDWFNTQVDDLVSQGLVVAATTADAKTPQKWSDYFSGQDVMAEFKTANDNMGDFTYMPGFSAVGAAMKQTAAKAADGSAKVSDVFDTAQKTSVDTLKNLGLSVKE
- glycan array binding signal (z-score) [1]: -0.148
- glycan array binding signal (z-score) [2]: -0.14
- glycan array binding signal (z-score) [3]: -0.166
- glycan array binding signal (z-score) [4]: -0.156
- glycan array binding signal (z-score) [5]: -0.155
- glycan array binding signal (z-score) [6]: -0.152
- glycan array binding signal (z-score) [7]: -0.13
- glycan array binding signal (z-score) [8]: -0.163
- glycan array binding signal (z-score) [9]: -0.145
- glycan array binding signal (z-score) [10]: -0.159
- glycan array binding signal (z-score) [11]: -0.17
- glycan array binding signal (z-score) (Fuc(a1-4)GlcNAc): -0.176
- glycan array binding signal (z-score) (Fuc(b1-3)GlcNAc): -0.182
- glycan array binding signal (z-score) (Gal(a1-2)Gal): -0.156
- glycan array binding signal (z-score) (Gal(a1-3)Gal): -0.146
- glycan array binding signal (z-score) (Gal(a1-3)Gal(b1-3)GlcNAc): -0.163
- glycan array binding signal (z-score) [12]: -0.143
- glycan array binding signal (z-score) [13]: -0.151
- glycan array binding signal (z-score) [14]: -0.171
- glycan array binding signal (z-score) [15]: -0.156
- glycan array binding signal (z-score) [16]: -0.07
- glycan array binding signal (z-score) (Gal(a1-3)Gal(b1-4)Glc): -0.138
- glycan array binding signal (z-score) (Gal(a1-3)Gal(b1-4)GlcNAc): -0.166
- glycan array binding signal (z-score) [17]: -0.17
- glycan array binding signal (z-score) [18]: -0.115
- glycan array binding signal (z-score) [19]: -0.176
- glycan array binding signal (z-score) [20]: -0.159
- glycan array binding signal (z-score) [21]: -0.195
- glycan array binding signal (z-score) [22]: -0.139
- glycan array binding signal (z-score) (Gal(a1-3)GalNAc): -0.18
- glycan array binding signal (z-score) [23]: -0.129
- glycan array binding signal (z-score) [24]: -0.093
- glycan array binding signal (z-score) (Gal(a1-4)Gal(b1-4)Glc): -0.159
- glycan array binding signal (z-score) (Gal(a1-4)Gal(b1-4)GlcNAc): -0.173
- glycan array binding signal (z-score) [25]: -0.059
- glycan array binding signal (z-score) [26]: -0.177
- glycan array binding signal (z-score) (Gal(a1-4)GlcNAc): -0.18
- glycan array binding signal (z-score) (Gal(a1-6)Glc): -0.174
